In patent publication US9987282B2, “Small molecule inhibitors of influenza A RNA-dependent RNA polymerase” (Nant Holdings IP, LLC, priority 2011, dated 2018):

System: influenza B
Details: confirmed by the inventors, no data shown

CCc1c(C)nc2cc(-c3ccc(OC)c(OC)c3)nn2c1NCCc1ccccn1 [A0435]
inhibition of influenza B: inhibitable
